# The other results are listed elsewhere or left out. Sequences were assembled here from the parent chain. Values near 0.05 are background.
# B1: TEV protease; numbered along this chain (parent)
# chain: MGESLFKGPRDYNPISSSICHLTNESDGHTTSLYGIGFGPFIITNKHLFRRNNGTLVVQSLHGVFKVKDTTTLQQHLVDGRDMIIIRMPKDFPPFPQKLKFREPQREERICLVTTNFQTKSMSSMVSDTSCTFPSGDGIFWKHWIQTKDGQCGSPLVSTRDGFIVGIHSASNFTNTNNYFTSVPKNFMELLTNQEAQQWVSGWRLNADSVLWGGHKVFMVKPEEPFQPVKEATQL
# Variants of: B1
# Assay: raw area under fraction-flipped curve 0-4 h after induction (AUC4h, not background-subtracted), DNA-recorder readout of cleavage of the substrate (dimensionless); higher = more cleavage of the substrate by the protease variant
# Settings: temperature: 34 °C; time window: 0-4 h after rhamnose induction
# 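Also: Bxb1 expression induced with 0.2% (w/v) L-rhamnose at OD600 near 0.5, cultures sampled hourly, flipped fraction per protease–substrate barcode pair counted by paired-end Illumina sequencing.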
Variant,area with substrate ENLYFES,area with substrate ENLYFFS,area with substrate ENLYFIS,area with substrate ENLYFMS,area with substrate ENLYFPS,area with substrate ENLYFRS,area with substrate ENLYFSS,area with substrate ENLYFWS,area with substrate ENLYFDS,area with substrate ENLYFKS
V64Q,0.0842,0.0616,0.0529,0.0679,0.0594,0.0637,0.0585,0.057,–,–
T176R,–,–,–,0.0435,0.0611,–,0.0418,–,0.0579,0.0769
T176V,–,–,–,–,0.0748,–,–,0.0643,–,0.0574
G8A,–,0.0593,0.0618,–,–,–,–,–,–,0.0611
G8D,–,–,0.0548,0.0651,0.0793,–,–,–,–,–
I19R,0.0445,0.0612,0.0474,0.0455,0.0511,0.0533,0.0463,0.0466,–,0.0592
M88D,–,–,0.0285,0.0314,–,–,–,–,–,–
M88Y,0.0548,0.0589,0.0503,–,0.0495,–,–,–,–,–
Q105F,0.0645,–,0.0474,–,0.0545,0.0453,0.0502,–,–,0.0677
H168N,0.0555,–,0.0536,0.0643,–,–,0.0489,–,–,–
E224H,0.0631,0.066,0.0578,0.08,0.0434,0.0625,0.0445,–,0.0652,–
E224K,0.0617,0.0716,0.0582,0.0614,0.0535,0.0456,0.0597,0.0411,0.0539,0.0634
K120F,0.058,0.0619,0.0576,0.0632,0.0592,–,–,0.0635,–,–
K216I,–,–,0.0487,–,–,–,0.0544,–,–,–
L112S,0.0522,0.0703,0.0536,0.0498,0.0745,0.0389,0.0623,–,–,0.0546
V200W,–,–,0.0625,–,0.0748,–,–,–,–,0.057
V200I,–,–,–,–,0.0952,–,–,–,–,–
D208K,–,–,0.0635,–,0.0633,–,–,–,–,0.0555
D208N,0.0747,0.0656,0.0468,–,–,0.0761,0.0609,0.0521,0.0525,0.0616
A232T,0.0634,0.0665,0.0637,–,0.0557,–,0.0488,0.0495,–,0.0599
A232C,0.0487,–,0.0621,0.051,–,0.0389,–,0.0442,–,–
A232M,0.0994,0.0694,0.0565,0.0849,0.0564,–,–,0.0311,–,–
A232F,–,–,–,0.0725,–,–,–,0.0469,–,–
P184C,–,–,0.0672,0.0727,0.0705,–,0.0621,–,0.0697,–
P184L,0.042,0.0631,0.0534,0.0509,–,0.0577,0.0552,0.05,–,–
W144K,–,0.0734,0.0587,–,0.0346,–,0.0598,–,–,–
R160N,0.0835,–,0.0563,–,–,0.0635,–,0.0507,–,–

# Same assay, conditions: temperature: 34 °C; time window: 0-4 h after rhamnose induction
Variant,area with substrate ENLYFNS,area with substrate ENLYFTS,area with substrate ENLYFVS,area with substrate ENLYFHS,area with substrate ENLYFYS,area with substrate ENLYFLS,area with substrate ENLYFGS
T176R,0.0933,0.0508,–,–,–,–,–
T176V,0.0665,–,0.0588,–,–,–,–
G8A,–,–,–,0.0669,0.0524,–,–
I19R,0.0556,0.0442,0.0461,0.0486,0.0451,0.0399,–
M88Y,0.0496,–,0.0507,–,–,0.0224,0.0514
Q105F,0.0393,0.0885,–,0.0488,0.03,0.0477,–
T192W,–,–,–,–,–,0.0759,–
H168N,0.0725,–,–,–,0.0481,–,–
E224H,–,0.0511,0.0698,–,0.0541,0.0625,–
E224K,0.0582,0.0576,–,–,0.048,–,0.0615
K120F,0.0602,0.0548,–,0.0516,–,0.074,–
K216I,–,0.0719,–,–,–,–,–
L112S,0.0949,0.0562,0.0445,0.0723,0.0576,–,0.0443
V200W,–,0.0514,–,–,–,–,–
V200I,–,0.0613,–,0.0479,–,–,0.0468
D208K,–,–,0.0578,–,0.0392,–,–
D208N,0.0782,–,0.0507,–,0.0546,–,–
A232T,0.0742,0.0486,–,–,–,–,–
A232C,0.0797,–,–,–,0.0395,–,0.0522
A232M,0.0569,0.0659,–,0.0566,–,–,–
A232F,0.0613,–,–,–,–,–,–
P184C,–,0.0627,–,0.0458,0.0544,–,–
P184L,0.0655,0.0473,–,0.0567,–,–,0.0677
W144K,0.0713,–,–,–,0.0648,–,0.0598
R160N,0.0548,–,0.0464,–,0.0504,–,0.0525

# — the supplement of paper PMC12217912
